± gives the standard deviation of the averaged measurements. The full ranking holds about 33,000 sequences; the median of “E-score (dimensionless, -0.5 to 0.5)” is about -0.049, and the highest 2% start at about 0.37. Some of the results follow.
system: T1, PmTbr T-box DNA-binding domain (GST fusion); test: PBM E-score of 8-mer (E-score (dimensionless, -0.5 to 0.5)); Tbr is Tbrain of the sea star Patiria miniata (Pm) or the sea urchin Strongylocentrotus purpuratus (Sp); higher = stronger binding preference; most listed sequences are background and not binding sites; conditions: the construct has about 5 more residues each side
T1 sequence: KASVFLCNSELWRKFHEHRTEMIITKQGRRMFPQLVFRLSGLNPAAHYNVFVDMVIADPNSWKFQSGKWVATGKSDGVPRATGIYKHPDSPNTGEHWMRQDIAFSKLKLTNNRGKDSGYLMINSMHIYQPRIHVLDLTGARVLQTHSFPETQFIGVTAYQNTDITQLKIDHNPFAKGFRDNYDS
In short: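 GST-fused Tbr T-box DNA-binding domains (the whole T-box plus about five flanking residues) were expressed in BL21 E. coli at 20 °C and purified by glutathione affinity chromatography. Universal Agilent oligonucleotide arrays were made double-stranded by primer extension, incubated with 200 nM protein in PBS (pH 7.5), then scanned and quantified. Every ungapped 8-mer was scored from probe intensities. The Universal PBM Analysis Suite gave each word an enrichment E-score, averaged over duplicate arrays.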

Sequence	PBM E-score of 8-mer
AAGACGGT	-0.0541 ± 0.02
CCGGTGGC	-0.00886 ± 0.016
GCCTTCTA	0.0362 ± 0.05
AGCCTCAA	-0.254 ± 0.0068
ACCTTATC	0.149 ± 0.034
ACAGGCAG	-0.00115 ± 0.046
ACACCTGA	0.4657 ± 0.0021
AAGGAATC	-0.0838 ± 0.12
GTTAGCGA	0.319 ± 0.018
ATGCTTCC	-0.196 ± 0.015
ATTACCCG	-0.123 ± 0.019
CTCCGCTC	-0.214 ± 0.0052
ACACGGCA	0.0195 ± 0.041
TCAGCTCA	-0.041 ± 0.037
CATCAATG	-0.00592 ± 0.0072
CTGTTCAC	0.263 ± 0.012
CACTGACA	0.245 ± 0.011
AAAGTCTG	-0.163 ± 0.067
CTCCGGTA	-0.0682 ± 0.046
GCAGGGGC	-0.193 ± 0.12
GTCTGATA	-0.0666 ± 0.023
AGAAACCG	-0.0946 ± 0.0052
CGCTCTAC	-0.148 ± 0.022
TATTGGAA	-0.2498 ± 0.0018

Sequence	PBM E-score of 8-mer
ACTTTACA	0.246 ± 0.086
CAGCGCAC	0.0473 ± 0.14
ATTGCCGG	0.00979 ± 0.029
AGGCTCGG	-0.0598 ± 0.031
CCCGACTA	0.00639 ± 0.076
CGGATAAA	-0.196 ± 0.013
TCGGGAAA	-0.0866 ± 0.018
GTCTAATA	-0.208 ± 0.027
TATGATAA	-0.0124 ± 0.036
AAACGCAT	-0.324 ± 0.019
ATTTGACA	0.327 ± 0.0078
CCATCCGA	-0.298 ± 0.078
ATAATCAA	0.0151 ± 0.0051
GCAATTTA	-0.00664 ± 0.054
AGAGTGCC	-0.0362 ± 0.13
CGGCGGAG	-0.127 ± 0.044
CTAAGGGC	0.0728 ± 0.063
AAAGTAGA	-0.0946 ± 0.036
GATCGCTA	0.15 ± 0.022
GCACTGGA	-0.0659 ± 0.015
CTCGACGA	-0.0245 ± 0.043
CCTGCTCG	-0.0468 ± 0.049
GCCAATCC	0.0146 ± 0.011
CTCAGGGA	-0.225 ± 0.012

Sequence	PBM E-score of 8-mer
ATGCGGCA	0.0459 ± 0.056
ACGTATAG	-0.0944 ± 0.066
GACTAAAA	-0.038 ± 0.085
AACTTACC	-0.0471 ± 0.021
CTAACAAC	0.338 ± 0.018
GTTTCCAA	-0.165 ± 0.02
ATGCGCAG	-0.129 ± 0.06
ATAGGATA	-0.243 ± 0.03
AGTCCCTA	-0.123 ± 0.027
GGGTCAAA	-0.282 ± 0.013
CGGGGCGC	0.154 ± 0.0063
ACGGCGGG	0.0264 ± 0.002
GGAGCAAA	-0.157 ± 0.037
TTCAGAAA	-0.227 ± 0.084
CAAGCCTC	-0.091 ± 0.046
CCAAACCC	-0.0465 ± 0.11
AACAGGCC	-0.118 ± 0.0077
ATGTAATG	-0.2496 ± 0.0015
TAATTGGA	-0.0622 ± 0.014
AAGTTTCG	-0.0542 ± 0.037
AAGTGATA	0.37 ± 0.025
ACCTCAAT	-0.0399 ± 0.019
CGAATATA	-0.132 ± 0.019
CGATCAGA	-0.0993 ± 0.12

Sequence	PBM E-score of 8-mer
AGTACTTG	0.0729 ± 0.0017
CGGGCACA	0.101 ± 0.0054
CTCCAGGA	-0.18 ± 0.013
GCCGATAA	0.0873 ± 0.022
CACGGAGA	0.00222 ± 0.037
AACATGTT	0.0354 ± 0.022
TAAAATCA	0.0751 ± 0.019
CGACCGCC	-0.0124 ± 0.07
AACACACG	0.181 ± 0.03
TATGTTCA	0.0299 ± 0.016
AGGCTGCC	-0.0922 ± 0.15
CATACACC	0.117 ± 0.0094
AACGTTGA	-0.0245 ± 0.078
TGCACCAA	0.0214 ± 0.017
CAAGGGTA	-0.0835 ± 0.064
CGATTGTA	-0.019 ± 0.0059
ATTGCCTC	-0.331 ± 0.024
CGGGCGTC	0.131 ± 0.047
CTCGATTA	0.042 ± 0.14
AGCTAAAT	-0.0587 ± 0.0072
ATATGGCC	-0.235 ± 0.066
GAAAACTA	-0.0923 ± 0.082

Source: the supplement of paper PMC4166925
